Laboratory results: PubChem BioAssay AID588342 (National Center for Advancing Translational Sciences (NCATS), 2011)
Screen size: about 360,000 compounds; about 25,000 (6.9%) were called active. The shares of active, inactive and inconclusive entries below differ from those in the screen. Calls come from the whole dose curve; as a rule, active = well fitted inhibition curve with a large enough effect; inconclusive = small, poorly fitted or top-dose-only effect; inactive = flat fitted curve, though single readings scatter. Potencies of inconclusive entries are doubtful fits and often do not repeat.
Note: nearly all actives have a fitted effect of over 55% in size.
Potency is the fitted concentration of half-maximal effect; tags give direction and shape of the fitted curve.

The compounds below were run against Luciferin 4-monooxygenase (Photinus pyralis) (UniProt P08659) (assay: qHTS profiling assay for firefly luciferase inhibitor/activator using purifed enzyme and Km concentrations of substrates (counterscreen for miR-21 project)). Conditions: purified FLuc, luminescence inhibition; series mostly up to 57.5 µM.
Chain of UniProt P08659 (P08659 whole entry, looked up): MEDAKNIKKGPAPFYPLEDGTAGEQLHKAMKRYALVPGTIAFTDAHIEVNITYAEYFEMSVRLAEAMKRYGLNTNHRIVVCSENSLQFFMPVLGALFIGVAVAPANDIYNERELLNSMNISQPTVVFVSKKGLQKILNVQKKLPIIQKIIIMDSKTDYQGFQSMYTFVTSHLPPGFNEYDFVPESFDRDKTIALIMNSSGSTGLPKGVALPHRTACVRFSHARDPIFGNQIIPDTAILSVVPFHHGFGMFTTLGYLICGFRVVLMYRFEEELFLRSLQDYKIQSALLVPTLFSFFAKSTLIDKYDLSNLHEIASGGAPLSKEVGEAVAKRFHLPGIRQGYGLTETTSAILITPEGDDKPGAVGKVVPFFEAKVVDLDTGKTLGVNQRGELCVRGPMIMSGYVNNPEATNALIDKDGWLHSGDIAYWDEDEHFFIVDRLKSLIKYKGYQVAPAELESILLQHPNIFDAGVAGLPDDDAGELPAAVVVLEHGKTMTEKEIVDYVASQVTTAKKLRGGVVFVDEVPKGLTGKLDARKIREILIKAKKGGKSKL
Procedure, shortened: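 Purified P. pyralis luciferase (10nM final) with 10uM D-luciferin and 10uM ATP (Km levels) in 50mM Tris acetate pH 7.5, 10mM Mg acetate, 0.01% Tween-20, 0.05% BSA; qHTS 6-point titration, ~60 µM downward; luminescence read.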
With `Cc1cc(C)c2c(=O)cc(C(=O)Nc3ccc(S(=O)(=O)Nc4onc(C)c4C)cc3)oc2c1` the Potency was inconclusive: 21.3 µM [inhibitor, partial curve].
In the case of `CC(Sc1nc2ccccc2o1)C(=O)O` (stereo not drawn), the Potency is reported as active: 15.1 µM.
`CC1CCCN(Cc2ccc(OCc3ccccc3)cc2)C1` (stereo not drawn) was tested, and the Potency was inconclusive: 19 µM [inhibitor, single point].
With `N/C(=N\OC(=O)Cc1ccc([N+](=O)[O-])cc1)c1ccccn1` the Potency was inconclusive: 26.9 µM [inhibitor, partial curve].
For `CCCN(C(=O)C1CC(=O)N(c2ccccc2C(C)CC)C1)C1CCS(=O)(=O)C1` (stereo not drawn), the Potency was “inactive”.
With `Cc1nn(Cc2cccc(C(=O)Nc3ccn(Cc4ccccc4)n3)c2)c(C)c1[N+](=O)[O-]` the Potency was inconclusive: 30.1 µM [inhibitor, partial curve, poor fit].
With `C/C(=N\NC(=O)C1CC1c1ccccc1)c1cccs1` (stereo not drawn) the Potency was “inactive”.
For `CC(C)c1nc2sc3c(c2c(=O)[nH]1)CC(C)(C)OC3`, the Potency was “inactive”.
With `COc1cccc(Nc2n[nH]c(=S)s2)c1` the Potency was inconclusive: 37.9 µM [inhibitor, partial curve, poor fit].
With `CCc1ccc(NC(=O)c2c(C(=O)Nc3ccccc3)sc3nc(C)cc(=O)n23)cc1` the Potency was “inactive”.
For `CCc1cc2c(=O)n(CC(C)C)cnc2s1`, the Potency was inconclusive: 21.3 µM [inhibitor, single point].
`COc1cc(-c2noc(C3CC(=O)N(c4cc(C)ccc4C)C3)n2)cc(OC)c1OC` (stereo not drawn) was tested, and the Potency was “inactive”.
With `CC(C)c1ccc(C(=O)OCC(=O)NC2CCCC2)cc1` the Potency was inconclusive: 21.3 µM [inhibitor, partial curve, poor fit].
With `COc1ccc(-n2nnnc2SCC(=O)c2ccc3c(c2)OCCO3)c(OC)c1` the Potency was inconclusive: 15.1 µM [inhibitor, partial curve].
`Cc1cc(C(=O)OCC(=O)Nc2c(F)cccc2F)c(C)n1-c1ccccc1` was tested, and the Potency was active: 10.7 µM.
`COc1ccccc1-c1sc2cc3c(cc2c1-c1ccc2c(c1)OCO2)OCO3` was tested, and the Potency was inconclusive: 23.9 µM [inhibitor, single point].
`CCOc1ccc(NC(=O)Cn2cnc3c(oc4ccccc43)c2=O)cc1` was tested, and the Potency was inconclusive: 12 µM [inhibitor, partial curve, poor fit].
With `Cc1ccc(CNC(=O)c2cccc3c2C(=O)c2ccc(N4CCOCC4)cc2S3(=O)=O)cc1` the Potency was “inactive”.
`CNc1nc(SC(C)C(=O)Nc2ccc(Cl)c(Cl)c2)nc(N2CCOCC2)n1` (stereo not drawn) was tested, and the Potency was “inactive”.
`CCOC(=O)Cc1csc(NC(=O)CSc2ccc(Br)cc2)n1` was tested, and the Potency was inconclusive: 37.9 µM [inhibitor, partial curve, poor fit].
With `O=C(O)c1ccc(N2C(=O)/C(=C\c3ccccc3)N=C2c2ccccc2)cc1` the Potency was inconclusive: 16.9 µM [inhibitor, partial curve].
`COCC(=O)N1CCc2ccc(NC(=O)c3ccccc3Cl)cc2C1` was tested, and the Potency was inconclusive: 21.3 µM [inhibitor, single point].
In the case of `CC(C)=CC(=O)Nc1ccc(Cl)cc1`, the Potency is reported as active: 10.7 µM.
`c1ccc(Cn2nnc(-c3ccccc3)n2)cc1` was tested, and the Potency was inconclusive: 19 µM [inhibitor, partial curve].
For `CCOc1ccc(C(=O)Nc2nnc(NC(=S)Nc3ccccc3)s2)cc1`, the Potency was inconclusive: 13.5 µM [inhibitor, partial curve].
In the case of `O=C(COC(=O)c1cc(-c2cccs2)nc2ccccc12)NC1CCS(=O)(=O)C1` (stereo not drawn), the Potency is reported as inconclusive: 21.3 µM [inhibitor, partial curve, poor fit].
For `CCc1ccc(NC(=O)[C@H](NC(=O)[C@@H]2Cc3ccccc3CN2)c2ccccc2)cc1`, the Potency was inconclusive: 26.9 µM [inhibitor, partial curve, poor fit].
With `C[C@H](NC(=O)c1nc[nH]c1C(=O)NCC(=O)OCc1ccccc1)c1ccccc1` the Potency was “inactive”.
In the case of `CC(=O)Nc1cccc(-c2cnc3ccccc3n2)c1`, the Potency is reported as active: 12 µM.
In the case of `COc1ccccc1NS(=O)(=O)c1cc(NC(=O)c2cc[n+]([O-])cc2)ccc1N1CCCC1`, the Potency is reported as inconclusive: 21.3 µM [inhibitor, partial curve, poor fit].
`CCc1nn2c(=O)cc(COC(=O)C3CCCCC3)nc2s1` was tested, and the Potency was inconclusive: 21.3 µM [inhibitor, partial curve, poor fit].
`CCn1cc(C(=O)NCc2ccccc2OC)c(=O)c2cc(S(=O)(=O)N3CCCCCC3)ccc21` was tested, and the Potency was “inactive”.
With `O=C(Nn1cnnc1)c1ccc(OC(F)(F)C(F)C(F)(F)F)cc1` (stereo not drawn) the Potency was inconclusive: 26.9 µM [inhibitor, single point].
For `Cc1ccc(C(=O)Nc2c(C)cc(C)c3cccnc23)cc1`, the Potency was inconclusive: 26.9 µM [inhibitor, single point].
`COCC(C)n1c(C)cc(C(=O)COC(=O)c2oc3ccccc3c2C)c1C` (stereo not drawn) was tested, and the Potency was inconclusive: 16.9 µM [inhibitor, partial curve].
In the case of `Brc1ccccc1-n1nnc(-c2cccnc2)n1`, the Potency is reported as active: 16.9 µM.
For `Cc1cc(C)n(-c2nc(C)c(C)c(=O)n2CC(=O)Nc2ccc(Cl)c(Cl)c2)n1`, the Potency was “inactive”.
`Cn1c(=O)c2[nH]c(N=Nc3ccc(N)cc3N)nc2n(C)c1=O` was tested, and the Potency was inconclusive: 19 µM [inhibitor, partial curve, poor fit].
In the case of `Cc1nc2ccc(S(=O)(=O)Nc3ccc(-c4nc5cccnc5s4)cc3)cc2s1`, the Potency is reported as inconclusive: 37.9 µM [inhibitor, single point].
In the case of `CN(C(=O)c1ccc(COc2ccccc2Br)o1)c1ccccc1`, the Potency is reported as inconclusive: 37.9 µM [inhibitor, partial curve, poor fit].
For `COc1ccc(-c2cc(OC(=O)c3cccc(C)c3)c3c(C)oc(C)c3c(=O)c2)cc1`, the Potency was inconclusive: 15.1 µM [inhibitor, partial curve, poor fit].
In the case of `Cc1cc(N2CCCC2)n2nc(C)c(-c3ccccc3)c2n1`, the Potency is reported as inconclusive: 3.38 µM [inhibitor, full curve].
`Cc1ccc(CNC(=O)c2ccc3c(c2)nc2n3CCCC2)cc1` was tested, and the Potency was inconclusive: 37.9 µM [inhibitor, single point].
